These are yes or no findings as the source states them, for the method shown. Binding seen in cells or lysates may run through a third protein. Some binding calls cover weakened binding; strength is not graded here.
How the values were obtained:
[1] = biological target: TAR-DNA binding protein 43 (TDP43) (human (endogenous in SH-SY5Y; endogenous in human spinal cord tissue)) (UniProt Q13148); experiment: co-IP; as a3, control immunoprecipitates (cells without MMS treatment)
[2] = biological target: TAR-DNA binding protein 43 (TDP43) (human (endogenous in SH-SY5Y; endogenous in human spinal cord tissue)) (UniProt Q13148); experiment: proximity ligation; PLA on ventral horn of lumbar spinal cord tissue of age-matched controls
[3] = biological target: TAR-DNA binding protein 43 (TDP43) (human (endogenous in SH-SY5Y; endogenous in human spinal cord tissue)) (UniProt Q13148); experiment: proximity ligation; PLA on ventral horn of lumbar spinal cord tissue of ALS-affected patients
[4] = biological target: TAR-DNA binding protein 43 (TDP43) (human (endogenous in SH-SY5Y; endogenous in human spinal cord tissue)) (UniProt Q13148); experiment: co-IP; Pierce Co-IP kit; 1 mg total lysate of MMS-treated differentiated SH-SY5Y cells, overnight at 4°C on resin with covalently linked anti-TDP43 antibody; Western blot with anti-MLH1 and anti-MSH6
[5] = biological target: MLH1 (human (endogenous in SH-SY5Y; endogenous in human spinal cord tissue)) (UniProt P40692); experiment: co-IP; reverse CoIP with anti-MLH1 and anti-MSH6 antibodies; lysate of MMS-treated differentiated SH-SY5Y cells
[6] = biological target: MSH6 (human (endogenous in SH-SY5Y; endogenous in human spinal cord tissue)) (UniProt P52701); experiment: as above
[7] = biological target: MLH1 (human (endogenous in SH-SY5Y; endogenous in human spinal cord tissue)) (UniProt P40692); experiment: co-IP; reverse CoIP with anti-MLH1 and anti-MSH6 antibodies; lysate of differentiated SH-SY5Y cells without MMS treatment
[8] = biological target: MSH6 (human (endogenous in SH-SY5Y; endogenous in human spinal cord tissue)) (UniProt P52701); experiment: as above

Chains of the proteins cited; added tags and fusions are not shown.
UniProt Q13148: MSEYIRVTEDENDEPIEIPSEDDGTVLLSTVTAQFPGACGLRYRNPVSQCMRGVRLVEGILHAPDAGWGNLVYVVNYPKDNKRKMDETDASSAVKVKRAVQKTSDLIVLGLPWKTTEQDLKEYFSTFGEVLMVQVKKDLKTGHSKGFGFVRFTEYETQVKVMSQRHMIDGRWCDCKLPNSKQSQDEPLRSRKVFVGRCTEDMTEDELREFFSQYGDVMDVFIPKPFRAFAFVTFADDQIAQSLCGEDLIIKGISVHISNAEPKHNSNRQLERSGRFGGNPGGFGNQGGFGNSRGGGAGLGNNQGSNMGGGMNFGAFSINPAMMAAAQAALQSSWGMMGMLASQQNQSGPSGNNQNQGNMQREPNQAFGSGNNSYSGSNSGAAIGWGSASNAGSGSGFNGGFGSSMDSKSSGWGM
UniProt P40692: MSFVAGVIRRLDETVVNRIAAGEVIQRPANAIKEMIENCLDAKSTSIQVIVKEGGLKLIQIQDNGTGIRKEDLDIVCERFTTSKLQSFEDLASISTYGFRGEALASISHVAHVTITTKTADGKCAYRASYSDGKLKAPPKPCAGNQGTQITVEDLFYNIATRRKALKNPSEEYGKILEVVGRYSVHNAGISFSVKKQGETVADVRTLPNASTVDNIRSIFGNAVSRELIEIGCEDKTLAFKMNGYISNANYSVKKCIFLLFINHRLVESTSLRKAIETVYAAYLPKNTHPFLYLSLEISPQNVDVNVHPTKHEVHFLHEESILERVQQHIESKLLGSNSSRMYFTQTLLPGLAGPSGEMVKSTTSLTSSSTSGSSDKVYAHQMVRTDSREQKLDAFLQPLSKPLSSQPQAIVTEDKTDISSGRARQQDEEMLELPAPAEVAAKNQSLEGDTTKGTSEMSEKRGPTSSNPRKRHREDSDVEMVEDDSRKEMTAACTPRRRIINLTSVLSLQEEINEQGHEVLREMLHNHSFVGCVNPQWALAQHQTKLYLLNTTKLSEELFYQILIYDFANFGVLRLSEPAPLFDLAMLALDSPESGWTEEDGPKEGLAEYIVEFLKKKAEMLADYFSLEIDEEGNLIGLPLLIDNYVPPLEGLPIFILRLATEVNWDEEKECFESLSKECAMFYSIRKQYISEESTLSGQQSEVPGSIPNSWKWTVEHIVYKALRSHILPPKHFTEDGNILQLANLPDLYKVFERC
UniProt P52701: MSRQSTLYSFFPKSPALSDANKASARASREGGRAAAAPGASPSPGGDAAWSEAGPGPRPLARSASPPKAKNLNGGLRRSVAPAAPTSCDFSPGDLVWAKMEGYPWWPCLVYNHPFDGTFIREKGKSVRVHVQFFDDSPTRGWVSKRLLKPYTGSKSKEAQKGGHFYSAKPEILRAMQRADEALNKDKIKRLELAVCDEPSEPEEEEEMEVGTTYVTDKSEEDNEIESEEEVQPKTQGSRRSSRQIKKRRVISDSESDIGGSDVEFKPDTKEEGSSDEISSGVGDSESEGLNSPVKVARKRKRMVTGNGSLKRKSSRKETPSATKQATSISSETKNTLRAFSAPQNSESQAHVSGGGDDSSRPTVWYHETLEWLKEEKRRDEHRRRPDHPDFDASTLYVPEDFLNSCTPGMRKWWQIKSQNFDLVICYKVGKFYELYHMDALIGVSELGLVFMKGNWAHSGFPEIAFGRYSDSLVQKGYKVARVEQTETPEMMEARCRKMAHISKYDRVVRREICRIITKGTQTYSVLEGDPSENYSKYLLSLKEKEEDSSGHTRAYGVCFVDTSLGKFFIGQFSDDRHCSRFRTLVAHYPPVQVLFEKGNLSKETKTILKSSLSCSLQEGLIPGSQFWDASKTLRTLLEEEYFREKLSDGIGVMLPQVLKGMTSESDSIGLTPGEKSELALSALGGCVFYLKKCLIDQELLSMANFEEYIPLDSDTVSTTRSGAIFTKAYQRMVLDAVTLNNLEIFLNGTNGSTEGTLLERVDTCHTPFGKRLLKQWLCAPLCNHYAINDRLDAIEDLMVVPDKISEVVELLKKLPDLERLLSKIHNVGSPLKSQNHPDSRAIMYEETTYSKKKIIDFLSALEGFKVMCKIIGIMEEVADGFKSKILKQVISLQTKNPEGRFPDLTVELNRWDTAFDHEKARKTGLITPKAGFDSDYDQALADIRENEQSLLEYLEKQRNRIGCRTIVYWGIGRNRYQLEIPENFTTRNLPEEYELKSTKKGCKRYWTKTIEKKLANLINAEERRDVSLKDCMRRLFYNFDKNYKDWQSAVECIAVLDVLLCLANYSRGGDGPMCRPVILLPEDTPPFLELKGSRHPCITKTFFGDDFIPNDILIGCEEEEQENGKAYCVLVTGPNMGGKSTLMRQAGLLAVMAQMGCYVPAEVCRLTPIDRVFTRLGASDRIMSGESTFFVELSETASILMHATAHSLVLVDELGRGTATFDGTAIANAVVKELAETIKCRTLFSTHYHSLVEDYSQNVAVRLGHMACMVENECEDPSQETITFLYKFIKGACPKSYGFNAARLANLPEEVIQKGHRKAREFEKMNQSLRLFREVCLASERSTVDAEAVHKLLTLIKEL

Row | binding [2] | binding [3] | binding [4] | binding [5] | binding [6] | Substance | binding [1] | binding [7] | binding [8]
1 | binds weakly | binds | binds | – | – | MSH6 (from UniProt P52701 1-1360) | no binding (condition: cells without MMS treatment) | – | –
2 | – | – | – | binds | binds | TAR-DNA binding protein 43 (TDP43) (from UniProt Q13148 1-414) | – | no binding (condition: cells without MMS treatment) | no binding (condition: cells without MMS treatment)

— paper PMC11142363
